Test results from PMC4336329 (PLoS ONE, 2015).
Screen size: about 310,000 compounds; about 2,200 (0.71%) showed an effect of 50% or more. The effect is printed as a negative number. The list shows a part of the results.

What follows are molecules tested against human ether-à-go-go-related gene (hERG) potassium channel (human, UniProt Q12809) (assay: primary screen, population patch clamp on CHO cells stably expressing hERG).
Chain of human ether-à-go-go-related gene (hERG) potassium channel (Q12809 whole entry, looked up): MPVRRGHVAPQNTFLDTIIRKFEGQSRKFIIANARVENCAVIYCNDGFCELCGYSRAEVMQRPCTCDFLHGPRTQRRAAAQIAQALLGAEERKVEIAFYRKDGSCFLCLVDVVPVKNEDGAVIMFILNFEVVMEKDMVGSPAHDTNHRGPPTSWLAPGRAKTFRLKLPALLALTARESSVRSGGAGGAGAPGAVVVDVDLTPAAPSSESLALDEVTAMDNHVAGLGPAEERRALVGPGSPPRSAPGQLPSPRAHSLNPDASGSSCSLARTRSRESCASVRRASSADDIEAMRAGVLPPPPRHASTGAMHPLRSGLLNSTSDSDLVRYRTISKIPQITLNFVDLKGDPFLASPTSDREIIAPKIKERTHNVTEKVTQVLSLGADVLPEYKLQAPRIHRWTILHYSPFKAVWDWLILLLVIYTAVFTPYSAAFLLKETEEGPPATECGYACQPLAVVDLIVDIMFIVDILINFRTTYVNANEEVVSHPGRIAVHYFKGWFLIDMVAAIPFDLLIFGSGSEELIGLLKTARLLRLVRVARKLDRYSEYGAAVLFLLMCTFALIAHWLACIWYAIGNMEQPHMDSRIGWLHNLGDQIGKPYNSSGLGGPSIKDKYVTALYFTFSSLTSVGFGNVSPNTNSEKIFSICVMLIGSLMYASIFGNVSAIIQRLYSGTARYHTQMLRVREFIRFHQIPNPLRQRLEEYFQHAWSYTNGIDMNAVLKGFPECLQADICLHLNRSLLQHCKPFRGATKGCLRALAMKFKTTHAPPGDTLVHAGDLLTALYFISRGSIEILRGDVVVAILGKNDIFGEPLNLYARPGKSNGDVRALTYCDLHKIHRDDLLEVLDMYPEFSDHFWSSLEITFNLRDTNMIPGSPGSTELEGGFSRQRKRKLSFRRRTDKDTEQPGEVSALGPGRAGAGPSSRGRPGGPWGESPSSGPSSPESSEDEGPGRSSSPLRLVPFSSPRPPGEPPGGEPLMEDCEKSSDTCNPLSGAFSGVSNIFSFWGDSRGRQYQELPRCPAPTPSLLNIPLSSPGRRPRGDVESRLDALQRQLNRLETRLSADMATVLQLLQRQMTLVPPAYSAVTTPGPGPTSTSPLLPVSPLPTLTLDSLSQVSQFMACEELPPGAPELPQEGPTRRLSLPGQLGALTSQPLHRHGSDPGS

Point of comparison: `O=C(c1cccc(C(F)(F)F)c1)N1CCC2(CC1)NCCc1[nH]cnc12`, “hERG current change (%, negative = inhibition) at 1uM” value 14.9%. Against it:
- COc1ccc(C2NC(=O)Cc3cc(OC)c(OC)cc32)cc1OC (stereo not shown) — lower, 5.57%
- CC(C)C(C(=O)NC1CCCC1)N(CC1CCCO1)C(=O)CNS(=O)(=O)c1ccccc1 (stereo not shown) — lower, 11.4%
- Cc1ncc(CN2CCCC(C(=O)Nc3ccc(-c4ccco4)cc3)C2)cn1 (stereo not shown) — lower, 2.36%
- O=C(NCc1ccccc1)N1CCOCC1 — lower, -5.83%
- Cc1nnc(NC(=O)CCn2c(=O)oc3ccc(Cl)cc32)s1 — lower, 13.6%
- c1csc(Cn2nnnc2CN2CCN(c3nc4ccccc4s3)CC2)c1 — lower, -7.1%
- O=C(CN1CCN(S(=O)(=O)c2ccccc2)CC1)N1CCc2ccccc21 — lower, 14.6%
- CCc1cc2c3c(c1)C(C)CC(C)(C)N3C(=O)C2=O (stereo not shown) — lower, -1.52%
- COc1ccccc1C(=O)COC(=O)c1cnc(C)cn1 — lower, 5.5%
- CCOC(=O)C1C(=O)CC(C)(O)C(C(=O)OCC)C1c1cccc(OC(F)(F)C(F)F)c1 (stereo not shown) — lower, 6.81%
- CC(C)(C)c1ccc(/C=N/NC(=S)Nc2cccnc2)cc1 — lower, 11.8%
- O=C(Nc1ccc(Cc2ccncc2)cc1)C1CCC(N2C(=O)C3C4C=CC(C5CC45)C3C2=O)CC1 (stereo not shown) — lower, 11.3%
- COc1ccc(C(=O)NCC(=O)OCC(=O)Nc2cccc(S(=O)(=O)N3CCCC3)c2)cc1 — lower, 7.46%
- CCCCCC(=O)NC(=S)Nc1ccc(N2CCOCC2)cc1 — lower, 6.61%
- N#Cc1c(NC(=O)c2cnccn2)sc2c1CCCC2 — lower, 8.57%
- CCC(C)NC(=S)Nc1ccc2nc(N3CCN(CC)CC3)cc(C)c2c1 (stereo not shown) — lower, -1.18%
- O=S(=O)(Nc1nc2ccccc2nc1Cl)c1ccc2ccccc2c1 — lower, 3.71%
- FC(F)(F)c1nc2ccccc2nc1N/N=C\c1ccccc1 — lower, 13.1%
- CC(=O)NC(CC(=O)Nc1cc(Cl)ccc1-n1cncn1)c1ccccc1 (stereo not shown) — lower, 12.8%
- Cc1cc(NC(=O)CSc2nnc(CNC(=O)c3ccc(C(C)(C)C)cc3)o2)no1 — lower, 11.8%
- N#CC(C#N)=C1CCc2ccccc2N1 — lower, 13.1%
- CN1C(=O)CC(Sc2ncccc2C(=O)O)C1=O (stereo not shown) — lower, 5.82%
- CCOC(=O)c1ccsc1NC(=O)CCS(=O)(=O)c1ccccc1 — lower, 7.82%
- CCCC[C@H]1COCCS(=O)(=O)N1Cc1ccccc1F — lower, 5.73%
